# Experimental data as given in PubChem BioAssay AID504832 (National Center for Advancing Translational Sciences (NCATS), 2011).
# Values joined by “and” are separate entries in the source; they are usually repeats but may differ in a detail not shown here. Equal entries are not always repeated. In all, about 310,000 compounds went through this assay and about 18,000 (5.8%) were called active. The shares of active, inactive and inconclusive entries below differ from those in the screen. Calls come from the whole dose curve; as a rule, active = well fitted inhibition curve with a large enough effect; inconclusive = small, poorly fitted or top-dose-only effect, or another doubt; inactive = no such curve, though single readings can be large or run the other way. No potency is given beside an inconclusive call; the fits are too rough.
# Assay: Primary qHTS for delayed death inhibitors of the malarial parasite plastid, 48 hour incubation
# Conditions: P. falciparum luciferase growth in erythrocytes; series mostly up to 28.7 µM
# In short: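 Read-out is firefly luciferase luminescence from an integrated reporter in P. falciparum, so falling signal marks reduced parasite growth. Infected erythrocytes were at 2% hematocrit and 0.1% parasitemia (final) in Albumax-supplemented RPMI 1640.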
# Potency is the fitted concentration of half-maximal effect; tags give direction and shape of the fitted curve.
row,SMILES,Potency
1,CN(Cc1ccccc1)C(=O)COC(=O)CCN1C(=O)C2CC=CCC2C1=O (stereo not given),inactive
2,Cc1ccc(S(=O)(=O)c2nc(Nc3ccccc3C#N)sc2Cl)cc1,"inconclusive [inhibitor, single point]"
3,COc1ccc(C2Nc3ccccc3C(=O)N2Cc2ccccc2)cc1COc1ccccn1 (stereo not given),"inconclusive [inhibitor, partial curve]"
4,CCOC(=O)c1sc(NC(=O)CSc2nnc(C(C)C)n2C)nc1C,"inconclusive [inhibitor, single point]"
5,COC(=O)c1ccc(-c2ncc(-c3cccc4ccccc34)o2)cc1,inactive
6,COc1ccc(Cc2nnc(N/N=C/c3ccccc3O)[nH]c2=O)cc1OC,"inconclusive [inhibitor, single point]"
7,CCOc1ccc(C(=O)NCC(=O)N2CCC3CCCCC3C2)cc1OCC (stereo not given),inactive
8,CC(C)c1nc2cc(C(=O)N3CCNC(=O)C3c3ccc(F)cc3)ccc2o1 (stereo not given),"inconclusive [inhibitor, partial curve, poor fit]"
9,Cc1ccc2cc(C#N)c(SCC(=O)N3CCCc4ccccc43)nc2c1C,"inconclusive [inhibitor, partial curve, poor fit]"
10,COc1ccc(C(C(=O)NC(C)(C)C)N(C(=O)CCC(=O)Nc2ccccn2)C2CCCCC2)cc1 (stereo not given),"inconclusive [inhibitor, single point]"
11,O=C(Nc1ccncc1)C1CCC(CNS(=O)(=O)c2cccc3nsnc23)CC1 (stereo not given),"inconclusive [inhibitor, partial curve]"
12,CC1CCCN(CCCNC(=O)c2ccc3c(c2)N(Cc2ccc(F)cc2)C(=O)c2ccccc2S3=O)C1 (stereo not given),active: 13.1 µM
13,O=C(CN1CCN(Cc2cccc3ccccc23)CC1)NCCc1ccccc1,inactive
14,Nc1csnc1C(=O)O,inactive
15,CCOC(=O)c1cnc2c(OC)cccc2c1Nc1ccc2c(c1)OCCO2,active: 2.33 µM
16,C[N+]1(C)CCCCC1COC(=O)C(O)(c1ccccc1)c1ccccc1 (stereo not given),"inconclusive [inhibitor, partial curve, poor fit]"
17,Fc1cccc(CNc2ncnc3ccc(-c4cccnc4)cc23)c1,"inconclusive [inhibitor, single point]"
18,O=C(CSC1CCCCC1)Nc1ccccc1Br,inactive
19,COCCn1c(SCC(=O)Nc2nnc(C)s2)nnc1-c1cc2ccccc2cc1O,"inconclusive [inhibitor, partial curve, poor fit]"
20,CCN(CC)C(=O)c1ccc(S(=O)(=O)Cc2ccc(C)cc2)c([N+](=O)[O-])c1,"inconclusive [inhibitor, partial curve, poor fit]"
21,CSc1nc2nccc(-c3ccc4c(c3)OCO4)n2n1,"inconclusive [inhibitor, partial curve, poor fit]"
22,CCCN1CC(=O)N2C(c3cccc(OC)c3OC)c3[nH]c4ccccc4c3C[C@H]2C1=O (stereo not given in full),active: 9.28 µM
23,COc1ccc(-c2c(S(=O)(=O)c3ccccc3)cnn2-c2ccccc2)cc1,"inconclusive [inhibitor, partial curve]"

row,SMILES,Potency
1,COc1ccccc1N(CC(=O)Nc1cccnc1)S(=O)(=O)c1ccccc1,"inconclusive [inhibitor, partial curve, poor fit]"
2,CCOC(=O)C1CCCN(C(=O)Cn2ncc3c([nH]c4ccc(C)cc43)c2=O)C1 (stereo not given),"inconclusive [inhibitor, partial curve]"
3,Cc1nn(CC(N)=O)c(=O)c2ccccc12,"inconclusive [inhibitor, single point]"
4,O=C1Nc2ccccc2CCc2ccccc21,"inconclusive [inhibitor, single point]"
5,O=C(CN1C2CCCC1CC(NC(=O)C1CCCCC1)C2)Nc1ccccc1C(F)(F)F (stereo not given),"inconclusive [inhibitor, single point]"
6,NC(=O)C(c1ccccc1)(c1ccccc1)[C@@H]1CCN(CCc2ccc3c(c2)CCO3)C1,"inconclusive [inhibitor, single point]"
7,Oc1cccc(C(Nc2nccs2)c2ccc3cccnc3c2O)c1 (stereo not given),active: 3.29 µM
8,CCC(C)[C@H](NC(=O)[C@@H]1Cc2ccccc2CN1C(=O)OC(C)(C)C)C(=O)NCC1CCC(C(=O)O)CC1 (stereo not given in full),"inconclusive [inhibitor, partial curve]"
9,O=C1CC(N2CCN(S(=O)(=O)c3cccc(C(F)(F)F)c3)CC2)C(=O)N1Cc1ccccc1 (stereo not given),"inconclusive [inhibitor, single point]"
10,Cc1ccc(NC(=S)NNc2ncc(C(F)(F)F)cc2Cl)cc1,"inconclusive [inhibitor, single point]"
11,CCCN(CCC)S(=O)(=O)c1cc(CN2C(=O)c3cccnc3C2=O)ccc1OC,inactive
12,CCC(=O)Nc1ccc(Br)cn1,inactive
13,CCOC(=O)C1(CC2CCCCO2)CCN(C(=O)Nc2ccccc2SC)CC1 (stereo not given),"inconclusive [inhibitor, partial curve]"
14,Cc1cc(Cl)n2c(nc3ccccc32)c1C#N,active: 8.28 µM
15,CCOC(=O)C1=C(COC(=O)/C=C/c2cc(OC)c(OC)c(OC)c2)NC(=O)NC1C (stereo not given),inactive
16,CCCNCC(O)COc1ccccc1C(=O)CCc1ccccc1 (stereo not given),active: 675 nM and active: 1.17 µM
17,O=[N+]([O-])c1ccc(/C=N/N=C/c2ccc([N+](=O)[O-])o2)o1,active: 4.15 µM
18,CCOC(=O)c1c(NC(=O)CN(CC)CC)sc2c1CCC2,active: 11.7 µM
19,Fc1ccccc1CNCCc1ccc2c(c1)OCO2,inactive
20,CC(CCc1ccccc1)NCC(O)COc1ccccc1 (stereo not given),active: 5.22 µM
21,Cc1ccc(NC(/C=C/N(C)C)=C/C(=O)C(F)(F)F)c(C)c1,"inconclusive [inhibitor, single point]"
22,Cc1ccc(C(=O)N(C)c2ccc(OCC(=O)N3c4ccc(C)cc4C4CN(C)CCC43)cc2)cc1 (stereo not given),"inconclusive [inhibitor, single point]"
